In PubChem BioAssay AID1508642 (National Center for Advancing Translational Sciences (NCATS), 2021):
In all, about 43,000 compounds went through this assay and about 200 (0.47%) were called active. Not shown: some 12% with an inconclusive outcome. The call rests on the fitted dose curve; in most records, active means well fitted cell-killing curve with a large enough effect; inconclusive means small, poorly fitted or top-dose-only effect, or effect the other way; inactive means flat fitted curve, though single readings scatter. The list shows a part of the results.

Assay: Cell viability qHTS assay in S16 Pmp22-F2sN cells; further: nearly all actives have a fitted effect of over 65% in size
Settings: S16 Pmp22-F2sN Schwann cells viability, CellTiter-Glo, 24 h; series mostly up to 57.5 µM; activity change, negative = cytotoxicity: at the top concentration
Procedure, shortened: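 S16 Pmp22-F2sN Schwann cells (500-1,000/well) in phenol-red-free DMEM with 10% FBS received 23 nL compound by pin tool for 24 h at 37 °C. Viability was then read as CellTiter-Glo luminescence after 15 min at room temperature.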
On the % scale 0 is the no-effect control and ±100 the full control effect.

Row | Compound | activity change, negative = cytotoxicity
1 | O=C(NCc1ccccn1)c1nn(-c2ccccc2F)nc1CO | inactive: -5.98%
2 | COc1cc(CN2CCN(S(=O)(=O)c3ccc(F)cc3)CC2)cc(OC)c1OC | inactive: -3.31%
3 | Fc1ccccc1C1=NC(c2ccc(C(F)(F)F)cc2)=Nc2ccccc2N1 | inactive: 13.2%
4 | COC(=O)c1cc(OC)c(OC)cc1NC(=O)c1ccc2c(c1)CCN2S(=O)(=O)c1ccccc1 | inactive: 0.242%
5 | Fc1ccc(-n2ncc3c(N4CCN(Cc5ccccc5)CC4)ncnc32)cc1 | inactive: -1.32%
6 | Cc1ccc(CNC(=O)Cn2ccn(-c3cc(C)cc(C)c3)c(=O)c2=O)cc1 | inactive: 4.8%
7 | O=C(c1ccc(F)cc1)n1nc(-c2ccc(Cl)cc2)nc1NCc1ccco1 | inactive: -17.7%
8 | COc1ccccc1NC(=O)Cn1nc(C)n2cccc2c1=O | inactive: -2.93%
9 | COc1ccc(OC)c(NC(=O)c2cc3cc4ccc(C)cc4nc3s2)c1 | inactive: 6.49%
10 | CC1=C(C(=O)Nc2ccccc2)C(c2cccs2)n2nc(SCc3ccccc3)nc2N1 (stereo unspecified) | inactive: 6.25%
11 | CCc1cccc(NC(=O)CN2c3ccccc3S(=O)(=O)c3ccccc32)c1 | inactive: 2.44%
12 | CC(C)(C)OC(=O)N1CCC(c2c(C(=O)N3CCN(c4ncccn4)CC3)cnn2-c2cccc(F)c2)CC1 | inactive: -7.63%
13 | COc1ccc(NC(=O)CCc2nnc3n(CC(C)C)c(=O)c4ccccc4n23)cc1OC | inactive: 12.6%
14 | CN(C)CCNC(=O)Cn1nc(N2CCN(c3ccccc3)CC2)ccc1=O | inactive: -1.3%
15 | COc1cc2c(cc1OC)n(CC(=O)c1ccc(C)cc1)c(=O)n1nc(CCn3nc(C)cc3C)nc21 | inactive: 1.97%
16 | COc1ccc(-c2cc(C(=O)Oc3cccc(C)c3C)c3ccccc3n2)cc1 | inactive: 2.93%
17 | Cc1ccc(O)c(NC(=O)COCc2cc(-c3ccco3)on2)c1 | inactive: -3.69%
18 | CC(=O)Nc1nonc1-c1nnc(SCc2ccccc2Cl)n1C | inactive: -0.0983%
19 | Cc1cc(C)c2c(=O)c3c(oc2c1)C(=O)N(Cc1ccco1)C3c1ccccc1F (stereo unspecified) | inactive: -4.86%
20 | Cn1cc(-c2cc3n(n2)CCC(=O)N3CCCC(=O)Nc2ccccc2F)c2ccccc21 | inactive: 5.37%
21 | CCc1ccc(NC(=O)c2ccc(F)c(S(=O)(=O)N3CCN(c4cc(C)ccc4C)CC3)c2)cc1 | inactive: -8.39%
22 | Cc1noc(-c2ccc(-c3noc(-c4ccc(C(F)(F)F)cc4)n3)cc2)n1 | inactive: 1.31%
23 | COc1ccc(Nc2nc(-c3ccccc3F)nc3ccccc23)cc1OC | inactive: -5.83%
24 | CCc1cccc(NC(=O)C(CC)n2nc(C)c3sc4ccccc4c3c2=O)c1 (stereo unspecified) | inactive: 2.64%

Row | Compound | activity change, negative = cytotoxicity
25 | Cc1c(C(=O)NCc2ccccc2Br)oc2ccc3c(c12)C(=O)CC(C)(C)O3 | inactive: -1.66%
26 | COc1ccc(NC(=O)c2sc3nc4c(cc3c2N)CN(Cc2ccccc2)CC4)cc1OC | inactive: -3.51%
27 | O=C(NC1CC(=O)N(c2ccccc2)C1)c1ccc(S(=O)(=O)N2CCCC2)cc1 (stereo unspecified) | inactive: -0.854%
28 | Nc1ncc(S(=O)(=O)NCc2ccc(F)cc2)cn1 | inactive: 1.45%
29 | CC(CCCc1ccccc1)NC(=O)c1nn(-c2ccc(Cl)cc2)nc1CO (stereo unspecified) | inactive: -1.29%
30 | CC(C)c1cccc(C(C)C)c1NS(=O)(=O)c1cccs1 | inactive: -2.14%
31 | Cc1ccc2[nH]c3c(=O)n(CC(=O)N4CCCC(C)C4)ncc3c2c1 (stereo unspecified) | inactive: 16%
32 | CC(=O)c1cccc(Nc2nc(-c3ccccc3Cl)nc3ccccc23)c1 | inactive: -1.56%
33 | Cc1ccccc1Cn1c2ccccc2c2cnn(CC(=O)NCCc3ccc(Cl)cc3)c(=O)c21 | inactive: 16.6%
34 | CCOc1ccccc1NC(=O)c1cc2c(=O)[nH]c3ccccc3c2s1 | inactive: 1.82%
35 | Cc1cccc2sc(N(Cc3cccnc3)C(=O)COc3ccccc3)nc12 | inactive: -13.8%
36 | COc1ccc(-c2nc3ccccc3s2)cc1NC(C)=O | inactive: -0.0075%
37 | CCOC(=O)c1c(C)[nH]c(C)c1S(=O)(=O)NCC(=O)N1CCN(c2ccccc2F)CC1 | inactive: -5.47%
38 | COc1ccc(CNC(=O)C2CCN(S(=O)(=O)c3ccc4c(ccn4C)c3)CC2)cc1 | inactive: 0.141%
39 | Cc1cc(C)c2c(-n3cccc3)c(C(=O)NCC(C)c3ccccc3)sc2n1 (stereo unspecified) | inactive: 8.61%
40 | COc1ccc(C(=O)CCC(=O)Nc2cc(C)ccc2C)cc1 | inactive: 5.44%
41 | COc1ccc(CN2CCN(S(=O)(=O)c3ccc(NC(C)=O)cc3)CC2)c(OC)c1OC | inactive: -2.97%
42 | CC(=O)c1cc2c(cc1N/C(=N/S(=O)(=O)c1ccc(F)cc1)c1ccccc1)OCO2 | inactive: -14.3%
43 | O=C(NC1CCCCC1)c1ccc2c(c1)N(Cc1cccc(Cl)c1)C(=O)c1ccccc1S2=O (stereo unspecified) | inactive: -26.7%
44 | CCc1ccc(NC(=O)c2sc3nc(C)cc(C)c3c2NC(=O)c2ccccc2OC)cc1 | inactive: 25.7%
45 | CCN(Cc1ccccc1)C(=O)CCS(=O)(=O)c1ccc2c(c1)CCN2C(C)=O | inactive: -0.0878%
46 | COc1cc(OC)c(NC(=O)CSc2cc(=O)n(C)c3ccc(Cl)cc23)cc1Cl | inactive: 19.8%
47 | CCc1c(CN2CCN(c3cccc(C)c3)C(C)C2)csc1C (stereo unspecified) | inactive: 11.8%
48 | O=C(Cn1ncc2c3ccccc3n(Cc3cccc(Cl)c3)c2c1=O)N1CCCCCC1 | inactive: -25.5%

Row | Compound | activity change, negative = cytotoxicity
49 | CCOc1ccc(CCNC(=O)Cn2c(C)c3cnn(-c4ccccc4)c(=O)c3c2C)cc1 | inactive: 0.18%
50 | COc1ccccc1N1CCN(S(=O)(=O)CCNC(=O)C(c2ccccc2)c2ccccc2)CC1 | inactive: -6.51%
51 | CCc1ccc(NC(=O)Cn2c(=O)n(CCc3ccccc3)c(=O)c3sc4ccccc4c32)cc1 | inactive: -1.89%
52 | CC(=O)c1cccc(N2C(=O)CN(S(C)(=O)=O)CC2(C)C(=O)NC2CCCC2)c1 (stereo unspecified) | inactive: -6.54%
53 | O=S(=O)(c1ccc2nc(Nc3ccc(F)cc3)ccc2c1)N1CCCC1 | inactive: -0.543%
54 | Cc1ccc(C)c(CNC(=O)CN2C(=O)CSc3ccc(S(=O)(=O)N(C)C)cc32)c1 | inactive: -16.7%
55 | Cc1cccc(-n2nnc(-c3nc(-c4cccs4)no3)c2N)c1 | inactive: 7.79%
56 | CCOC(=O)c1[nH]c(C)c(CCC(=O)Nc2cc(Cl)c(OC)cc2OC)c1C | inactive: -13.7%
57 | Cc1cc(C)c(NC(=O)Cn2c(=O)n(CC(=O)NCCc3ccccc3)c(=O)c3ccccc32)c(C)c1 | inactive: 1.6%
58 | O=C(CSc1nc2ccccc2n1Cc1cccc(F)c1)N1CCN(c2ccc(F)cc2)CC1 | inactive: 5.71%
59 | O=C(NC1CCCCCC1)c1ccc(CS(=O)c2cccc(Cl)c2)o1 (stereo unspecified) | inactive: 15.3%
60 | O=C(NCc1ccccc1Cl)c1ccc2c(c1)N(Cc1ccccc1)CCS2 | inactive: -11.4%
61 | CCC(C)NC(=O)c1cn(CC)c2ccc(S(=O)(=O)N3CCc4ccccc4C3)cc2c1=O (stereo unspecified) | inactive: -20.1%
62 | Cc1ccc(CCNC(=O)c2ccc3c(c2)N(Cc2ccc(F)cc2)CCS3)cc1 | inactive: -21.5%
63 | COc1ccc(CNC(=O)c2ccc(CS(=O)(=O)c3ccc(Br)cc3)o2)cc1 | inactive: -2.11%
64 | CCOc1ccc(OCC)c(NC(=O)c2cc(-c3cccs3)nc3ccccc23)c1 | inactive: -1.98%
65 | CCc1cccc(C)c1NC(=O)Cn1ncc2c3ccccc3n(Cc3ccccc3)c2c1=O | inactive: 20.1%
66 | COc1ccc(-c2cn3nc(SCC(=O)Nc4cc(C)cc(C)c4)ccc3n2)cc1 | inactive: 2.09%
67 | Cc1ccc(Cl)cc1Nc1nn2c(=O)c3ccc(C(=O)NC4CCCCC4)cc3nc2s1 | inactive: -15.3%
68 | COc1ccc(OC)c(NC(=O)CS(=O)(=O)Cc2nc(-c3ccc(C)cc3)oc2C)c1 | inactive: 8.19%
69 | CCCSc1ncnc2c1c(-c1ccccc1)cn2-c1ccccc1OC | inactive: 1.34%
70 | CCOc1ccc2c(c1)c(=O)c(S(=O)(=O)c1ccc(CC)cc1)cn2Cc1cccc(Cl)c1 | inactive: -14.7%
71 | O=C1CCSc2ccc(S(=O)(=O)Nc3cccc(C(F)(F)F)c3)cc2N1 | inactive: 5.11%
72 | O=c1c(N2CCN(c3cccc(Cl)c3)CC2)csc2ccc(Cl)cc12 | inactive: 19.9%

Row | Compound | activity change, negative = cytotoxicity
73 | O=c1c2sccc2n(Cc2cc(=O)n3cc(Cl)ccc3n2)c(=O)n1-c1ccccc1 | inactive: -0.251%
74 | Cc1ccc(CNC(=O)CCCc2nnc3n(CC(C)C)c(=O)c4sccc4n23)cc1 | inactive: 11.9%
75 | CCOC(=O)c1ccccc1NC(=O)c1nn(-c2ccc(OC)c(Cl)c2)c(=O)c2c1c1ccccc1n2C | inactive: 2.54%
76 | Cc1sc2ncn(CC(=O)N3CCN(c4ccccc4)CC3)c(=O)c2c1S(=O)(=O)N1CCC(C)CC1 | inactive: -4.43%
77 | COCCCNC(=O)C1CCN(c2nc3ccc(Cl)cc3[nH]2)CC1 | inactive: 4.42%
78 | CC1=C(c2ccc(C(C)C)cc2)S(=O)(=O)NC1=NCc1ccc(Cl)cc1 | inactive: 12.2%
79 | Cc1cccc(NC(=O)N2CC=C(c3c[nH]c4ccccc34)CC2)c1C | inactive: -7.24%
80 | CCN(CC)C(=O)C1CCCN(c2ncnc3c2c(-c2ccccc2)cn3-c2cccc(C)c2)C1 (stereo unspecified) | inactive: -29.2%
81 | O=c1c2nncn2ccn1-c1ccc(F)c(F)c1 | inactive: -3.11%
82 | O=C(c1cc2cc3ccc(Cl)cc3nc2o1)N1CCN(c2cccc(Cl)c2)CC1 | inactive: -4.1%
83 | O=C(CN1C(=O)CSc2ccc(S(=O)(=O)N3CCCC3)cc21)NCc1ccc(F)cc1Cl | inactive: 11.3%
84 | Cc1ccc(CNC(=O)CSCc2nc(-c3cccc(C)c3)oc2C)cc1 | inactive: 4.66%
85 | Cc1cn2c(=O)c(S(=O)(=O)NCc3ccc(F)cc3)c(C)nc2s1 | inactive: 2.46%
86 | CCC(NC(=O)Nc1cccc(C)c1)c1c(-n2cccc2)sc2c1CCN(C)C2 (stereo unspecified) | inactive: -1.04%
87 | O=C(CCC1N=C2c3ccccc3N=C(SCC(=O)NCCc3ccccc3)N2C1=O)NCc1ccc(F)cc1 (stereo unspecified) | inactive: 8.25%
88 | O=C(NCc1ccccc1Cl)c1ccc(-n2cnc3cccnc32)cc1 | inactive: 6.27%
89 | Cn1c(/C(C#N)=C/c2ccc(C(F)(F)F)cc2)nc2ccccc21 | inactive: -0.44%
90 | CCOc1ccccc1NC(=O)Cn1nc(N2CCN(c3ccccc3)CC2)ccc1=O | inactive: -11.2%
91 | COc1ccccc1CNC(=O)CSc1cc(C)[nH]c(=O)n1 | inactive: 3.08%
92 | CCCN(CCC)C(=O)Cn1c(=O)n(-c2ccc(Cl)c(Cl)c2)c(=O)c2c(C)c(C(=O)N(C)C)sc21 | inactive: 0.136%
93 | CCOc1ccc(OCC)c(NC(=O)C2CCCN(S(=O)(=O)c3ccc(C)cc3)C2)c1 (stereo unspecified) | inactive: 1.05%
94 | CCOc1ccc(-c2nnc(SCC(=O)N(CC)c3cccc(C)c3)o2)cc1 | inactive: -22.3%
95 | O=C(Cn1c(=O)n(-c2ccccc2Cl)c(=O)c2sc3ccccc3c21)NC1CCCC1 | inactive: 2.73%
96 | CCc1ccccc1N(CC)C(=O)Cn1nc(Cc2ccncc2)c2ccccc2c1=O | inactive: 14.6%
